From PubChem BioAssay AID463173 (ICCB-Longwood Screening Facility, Harvard Medical School, 2010)
About 1,700 (3.3%) of roughly 52,000 compounds were called active. Cut-off read from the data, not from the text of the source: active = survival mostly below about 52% (no sharp cut-off); inactive = mostly above about 56%. Some of the results follow.

Each compound was assayed on Wild type (assay: S. aureus survival, RN4220 and DeltatarO strains – OD600, teichoic acid synthesis inhibitors, primary screen (AID 463173)). Settings: S. aureus RN4220 wild type/DeltatarO growth, OD600, 18 h, stronger effect = lower value, screened at 18.75 µg/mL (by protocol).

| Compound | survival |
| --- | --- |
| O=C(Nc1nc2c(F)cccc2s1)c1ccc(S(=O)(=O)N2CCOCC2)cc1 | inactive: 101% |
| CCCSc1ncc(Cl)c(C(=O)Nc2ccc(S(=O)(=O)N3CCCC(C)C3)cc2)n1 (stereo not drawn) | inactive: 84% |
| COc1ccc(CN(C(=O)c2ccccc2F)C2CCS(=O)(=O)C2)cc1 (stereo not drawn) | inactive: 94% |
| Cc1ccc(NC(=O)CN2C(=O)c3cccnc3Sc3ccccc32)cc1C | inactive: 70% |
| COc1ccc2[nH]cc(CCNC(=O)Nc3ccccc3)c2c1 | inactive: 95% |
| COc1ccc(C2C3C(=O)N(c4ccccc4)C(=O)C3ON2c2ccccc2)cc1 (stereo not drawn) | inactive: 104% |
| CC(=O)N1c2ccc(S(=O)(=O)N3CCCCCC3)cc2CC1C(=O)NCc1ccccc1 (stereo not drawn) | inactive: 79% |
| O=C(Nc1ccc2oc(-c3ccccc3)nc2c1)c1ccc2ccccc2c1 | inactive: 80% |
| COc1ccc(CNC(=O)C2CCCN2C(=O)NCc2ccccc2)cc1 (stereo not drawn) | inactive: 109% |
| COc1cc2c(cc1OC)C(COc1ccc3c(C)cc(=O)oc3c1)N(C(=O)c1cccc(OC)c1OC)CC2 (stereo not drawn) | inactive: 75% |
| COCCn1c(C)cc(O)c(C(c2ccccc2)N2CCN(CCO)CC2)c1=O (stereo not drawn) | active: 0% |
| Cc1cc(C)cc(NC(=O)CSc2oc(-c3ccco3)nc2S(=O)(=O)c2ccccc2)c1 | inactive: 83% |
| O=C(Nc1ccccc1OCc1cc(=O)n2ccccc2n1)c1cccc(Br)c1 | inactive: 76% |
| CCOc1ccc(NC(=O)N2CCC(CN3CCCCCC3)CC2)cc1 | inactive: 111% |
| Cc1cccc(N2CCN(C(=O)c3ccc4c(c3)c(C)c(C)n4C)CC2)c1C | inactive: 74% |
| COc1ccc2c(c1)c1c(c(=O)n(Cc3ccccc3)c(=O)n1CC(=O)Nc1cc(C)cc(C)c1)n2C | inactive: 71% |
| Clc1ccc(OCc2nc(-c3ccc(-n4cccc4)cc3)no2)cc1 | inactive: 142% |
| Cc1ccc(Cl)cc1NC(=O)CCCn1c(=O)c2cccn2c2ccccc21 | inactive: 83% |
| Cc1ccc2c(n1)sc1c(=O)n(-c3cccc(C(F)(F)F)c3)nnc12 | inactive: 112% |
| COc1ccc(-c2nc3scc(CCNS(=O)(=O)c4cc(F)ccc4OC)n3n2)cc1OC | inactive: 87% |

| Compound | survival |
| --- | --- |
| NS(=O)(=O)c1cccc(C(=O)O)c1 | inactive: 106% |
| Cc1ccc(CN2CCSc3ccc(C(=O)Nc4cc(C)cc(C)c4)cc32)cc1 | inactive: 97% |
| Cc1ccc(CCNC(=O)CCCn2c(=O)c3ccccc3n(CC(=O)Nc3cc(Cl)ccc3C)c2=O)cc1 | inactive: 137% |
| CC(=O)N1CCc2c(sc3nc(SCC(N)=O)n(-c4ccc(F)c(Cl)c4)c(=O)c23)C1 | inactive: 67% |
| CN(C(=O)CSc1nnc(-c2ccc([N+](=O)[O-])cc2)o1)C1CCCCC1 | inactive: 77% |
| Clc1ccc(Nc2c(-c3cccs3)nc3ccc(Cl)cn23)cc1 | inactive: 112% |
| COc1ccc(CCNC(=O)Cn2c(=O)cc(C(F)(F)F)c3c(C)nn(C)c32)cc1OC | inactive: 85% |
| COc1cc(-c2nc3ccccn3c2NC2CCCC2)ccc1O | inactive: 89% |
| CCOC(=O)c1sc2nc(C)n(CC(=O)Nc3cccc(Cl)c3)c(=O)c2c1C | inactive: 74% |
| Cc1ccc(C)c(CSC2=NC(C)(C)Nc3ccccc32)c1 | inactive: 74% |
| COc1ccc(CN(C)S(=O)(=O)c2nnc(NC(=O)C(C)C)s2)cc1OC | inactive: 47% |
| CC(=O)c1cccc(NC(=O)CSc2nnc3ccc(-c4ccc(Cl)cc4)nn23)c1 | inactive: 132% |
| CCc1cccc(NC(=O)c2cc3c(=O)[nH]c4ccccc4c3n2C)c1 | inactive: 90% |
| CC(C)(C)c1cc(CN2CCOCC2)c(C(=O)O)o1 | inactive: 93% |
| COc1ccccc1NC(=O)C1=C(C)Nc2nc(SCc3ccccc3F)nn2C1c1cccnc1 (stereo not drawn) | inactive: 85% |
| Cc1cccc(Nc2nc3nonc3nc2Nc2cccc(C)c2C)c1C | inactive: 102% |
| C=CCc1c(C)nc2nc(SCC(=O)Nc3cccc(Cl)c3)nn2c1C | inactive: 81% |
| CC(C)CN(CC(C)C)c1nc(-c2ccc(Cl)cc2)nc2ccccc12 | active: -1% |
| Cc1c(Cl)cccc1NC(=O)c1ccc2c(c1)nnn2C1CCCC1 | inactive: 120% |
| CCOC(=O)c1c(C)oc2nc(C)nc(N(CC(C)C)CC(C)C)c12 | inactive: 71% |

| Compound | survival |
| --- | --- |
| Cc1cc(C)c2[nH]c(=O)c(CN(C(=O)Nc3ccccc3F)C3CC3)cc2c1 | inactive: 102% |
| O=C(CCS(=O)(=O)c1ccccc1)N(Cc1cccnc1)c1nc2c(Cl)cccc2s1 | inactive: 82% |
| O=C(Nc1ccccc1C(=O)OCc1cc(=O)n2c3c(sc2n1)CCCC3)c1ccccc1 | inactive: 94% |
| O=C(NCCCN1CCN(c2ccc(F)cc2)CC1)C1COc2ccccc2C1 (stereo not drawn) | inactive: 65% |
| COc1ccc(Cl)cc1NC(=O)Cn1c(=O)n(Cc2nc(C)no2)c(=O)c2ccccc21 | inactive: 68% |
| CCc1ccc(NC(=O)c2ccc3c(=O)n4nc(Nc5ccccc5C)sc4nc3c2)cc1 | inactive: 71% |
| S=C(NCc1ccco1)Nc1ccccc1 | inactive: 115% |
| Clc1cccc(-n2ncc3c(NCCc4ccccc4)ncnc32)c1 | inactive: 87% |
| CCCOc1ccc(C2C(=O)N(C3CCCCC3)CC(=O)N2CCc2ccccc2)cc1OC (stereo not drawn) | inactive: 93% |
| CCOC(=O)c1cccc(NS(=O)(=O)c2cc(-c3cnc(C)o3)ccc2OC)c1 | inactive: 110% |
| CN(C)C(=O)c1ccc(NC(=O)Cn2nc(-c3ccccc3)c3ccccc3c2=O)cc1 | inactive: 65% |
| CCCCCNC(=O)c1cc2c(=O)n3ccccc3nc2n1C | inactive: 83% |
| COc1ccc(OCCn2cnc3ccccc32)cc1 | inactive: 107% |
| CCCCNC(=O)C(CC)Sc1nnc(-c2ccc(F)cc2)c(-c2ccc(F)cc2)n1 (stereo not drawn) | inactive: 84% |
| Cc1c(C=Nc2ccc(SC#N)c(Cl)c2)c(O)[nH]c(=O)c1C#N | inactive: 97% |
| Cc1cccc(NC(=O)c2c(NC(=O)c3cccs3)sc3c2CCC(C)C3)c1 (stereo not drawn) | inactive: 75% |
| CCOC(=O)c1c(NC(=O)COc2cc(C)ccc2C(C)C)sc2c1CCCC2 | inactive: 65% |
| COc1ccccc1N1CCN(C(CNC(=O)C(=O)NCCN(C)C)c2cccnc2)CC1 (stereo not drawn) | inactive: 85% |
